In assay [1] the target is T1, human FGL1-His antigen (ACRO, FG1-H52Hy) (human, UniProt Q08830 23-312).
T1 construct: Bought His-tagged protein; also called hFGL1; hFGL1 antigen
T1 sequence (looked up): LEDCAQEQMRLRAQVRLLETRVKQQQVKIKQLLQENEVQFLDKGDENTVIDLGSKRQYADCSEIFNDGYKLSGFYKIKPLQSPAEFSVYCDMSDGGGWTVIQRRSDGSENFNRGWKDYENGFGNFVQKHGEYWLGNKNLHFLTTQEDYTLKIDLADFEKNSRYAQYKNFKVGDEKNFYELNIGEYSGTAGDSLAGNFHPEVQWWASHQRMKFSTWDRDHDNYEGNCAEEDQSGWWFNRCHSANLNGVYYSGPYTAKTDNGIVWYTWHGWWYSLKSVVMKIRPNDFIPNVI
As to the kind of experiment: Biacore SPR, antigen amine-coupled on CM5 chip, 1:1 fit. Background: In SPR one partner is held on a chip, and binding of the other changes the refractive index at the surface.

The target in assay [2] is T1, human FGL1-His antigen (ACRO, FG1-H52Hy). Put plainly: ELISA as in Example 3: construct coated, serially diluted human FGL1 added, OD450.

Positions count from the first letter of the chain named. In names and notes the source's numbering stands.

B1: IMP321 (LAG-3 D1-D2-D3-D4-Fc wild type) (Fc fusion)
chain: LQPGAEVPVVWAQEGAPAQLPCSPTIPLQDLSLLRRAGVTWQHQPDSGPPAAAPGHPLAPGPHPAAPSSWGPRPRRYTVLSVGPGGLRSGRLPLQPRVQLDERGRQRGDFSLWLRPARRADAGEYRAAVHLRDRALSCRLRLRLGQASMTASPPGSLRASDWVILNCSFSRPDRPASVHWFRNRGQGRVPVRESPHHHLAESFLFLPQVSPMDSGPWGCILTYRDGFNVSIMYNLTVLGLEPPTPLTVYAGAGSRVGLPCRLPAGVGTRSFLTAKWTPPGGGPDLLVTGDNGDFTLRLEDVSQAQAGTYTCHIHLQEQQLNATVTLAIITVTPKSFGSPGSLGKLLCEVTPVSGQERFVWSSLDTPSQRSFSGPWLEAQEAQLLSQPWQCQLYQGERLLGAAVYFTELSSPGDDDDKGSGSG[human IgG1 Fc omitted here]
notes: also called IMP321 wild type; IP321-PE
In general, Kd refers to a measure of binding affinity in units of concentration. Low readings indicate tighter binding, high ones weaker binding. Regarding B1, the dissociation constant Kd in assay [1] amounted to 8.43 nM.

B2: LAG-3 D1-D2-D3-D4-Fc mutant A7848 (N183A) (Fc fusion)
chain: B1 chain with N183A
notes: D2 entry already carries N183A
For B2, the binding result in assay [2] is reported as “binds”.

B3: LAG-3 D1-D2-D3-D4-Fc mutant A7850 (P195A) (Fc fusion)
chain: B1 chain with P195A
notes: D2 entry already carries P195A
B3: in assay [2], the binding result was “binds”.

B4: LAG-3 D1-D2-D3-D4-Fc mutant A7817 (E201D) (Fc fusion)
chain: B1 chain with E201D
notes: D2 entry already carries E201D
Regarding B4, the binding result in assay [2] was “binds”.

B5: LAG-3 D1-D2-D3-D4-Fc mutant A7820 (E201G) (Fc fusion)
chain: B1 chain with E201G
notes: D2 entry already carries E201G
On to B5, for which the binding result in assay [2] is “binds”.

The record behind these values is patent publication US20240247043A1 (WUHAN YZY BIOPHARMA, published 2024).
